# According to PubChem BioAssay AID624417 (National Center for Advancing Translational Sciences (NCATS), 2012):
# The campaign covered roughly 410,000 compounds. About 6,400 (1.6%) were called active. The shares of active, inactive and inconclusive entries below differ from those in the screen. The call rests on the fitted dose curve; in most records, active means well fitted inhibition curve with a large enough effect; inconclusive means small, poorly fitted or top-dose-only effect; inactive means no such curve, though single readings can be large or run the other way. Potencies of inconclusive entries are left out as doubtful fits.
# Target: Glucagon-like peptide 1 receptor (Homo sapiens) (UniProt P43220)
# Chain of UniProt P43220 (P43220 whole entry, looked up): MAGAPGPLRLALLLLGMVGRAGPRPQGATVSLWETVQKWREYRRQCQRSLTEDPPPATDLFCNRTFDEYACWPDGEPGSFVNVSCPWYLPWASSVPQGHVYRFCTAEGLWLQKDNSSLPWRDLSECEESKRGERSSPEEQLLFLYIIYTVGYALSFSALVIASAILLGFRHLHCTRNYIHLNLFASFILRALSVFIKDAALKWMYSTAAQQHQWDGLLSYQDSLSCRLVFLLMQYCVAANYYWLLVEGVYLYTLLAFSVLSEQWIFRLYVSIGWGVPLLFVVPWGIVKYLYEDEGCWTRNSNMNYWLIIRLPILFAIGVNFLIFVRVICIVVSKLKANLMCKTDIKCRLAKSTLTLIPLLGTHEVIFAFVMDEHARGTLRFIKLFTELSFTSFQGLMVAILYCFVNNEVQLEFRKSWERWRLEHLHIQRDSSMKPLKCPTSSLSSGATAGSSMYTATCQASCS
# Test: qHTS of GLP-1 Receptor Inverse Agonists (Inhibition Mode); further: nearly all actives have a fitted effect of over 55% in size
# Conditions: HEK293 GLP-1R CRE-luciferase, luminescence, 24 h, GLP-1R form is constitutively active; activity change, negative = inhibition: at 38.3 µM (top of the series) unless noted
# In short: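 Constitutively active GLP-1R drives a cAMP-responsive luciferase in stably transfected HEK293 cells; test compounds are added after overnight (12 h) attachment and left 24 hr, and signal loss in luminescence marks inhibition.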
# On the % scale 0 is the no-effect control and ±100 the full control effect; potency means the concentration at half of the fitted maximal effect; tags describe the fitted curve by direction and shape.
SMILES,Potency,"activity change, negative = inhibition"
Cc1ccc2c(c1)-c1cc(C)ccc1C2=O,"inconclusive [inhibitor, single point]",–
CSc1ccc(CN(C)Cc2nc3cc(C(F)(F)F)ccc3c(=O)[nH]2)cc1,"inconclusive [inhibitor, single point]",–
COc1cccc(COC(=O)Nc2ccccc2F)c1,"inconclusive [inhibitor, single point]",–
CCc1ccc(N2CC(C(=O)N3CCN(c4ccccn4)CC3)CC2=O)cc1 (stereo unspecified),"inconclusive [inhibitor, full curve]",–
O=C(CC1(O)C(=O)N(Cc2ccccc2)c2ccc(Br)cc21)c1ccccc1 (stereo unspecified),"inconclusive [inhibitor, single point]",–
O=C(c1sc2ccccc2c1Cl)N1CCN(c2ccccn2)CC1,"inconclusive [inhibitor, single point]",–
COc1ccccc1N1CCN(C(=O)c2cc3c(C)nc4ccccc4c3o2)CC1,"inconclusive [inhibitor, single point]",–
COc1ccccc1N1CCN(S(=O)(=O)CCNC(=O)CC2CCCC2)CC1,"inconclusive [inhibitor, partial curve, poor fit]",–
CCOC(=O)c1c(NC(=O)C(F)(OC)C(F)(F)F)sc2c1CCN(C)C2 (stereo unspecified),"inconclusive [inhibitor, partial curve, poor fit]",–
O=C(/C=C/c1cccnc1)c1cccc(O)c1,"inconclusive [inhibitor, single point]",–
COc1ccc(C(=O)O/N=C(\N)c2cccc(C)c2)cc1OC,"inconclusive [inhibitor, single point]",–
Cn1c(/C=N/O)nc2ccccc21,–,inactive: -2.53%
Oc1ccc2ccccc2c1C=Nc1cc(C(F)(F)F)ccc1N1CCCC1,"inconclusive [inhibitor, single point]",–
Cc1ccc(S(=O)(=O)n2nc(OC(=O)c3c(-c4ccccc4Cl)noc3C)cc2N)cc1,"inconclusive [inhibitor, single point]",–
COc1cc([N+](=O)[O-])ccc1NC(=O)CCCOc1cccc(C)c1,"inconclusive [inhibitor, single point]",–
C[C@H](NC(=O)C1CCN(S(=O)(=O)c2ccccc2)CC1)C(=O)NCc1ccncc1,–,inactive: 4.18%
Cn1c(=O)oc2cc(S(=O)(=O)N3CCCC(C(=O)N4CCN(c5cccc(Cl)c5)CC4)C3)ccc21 (stereo unspecified),–,inactive: 11%
Cc1cccc(NC(=O)N2CCCC2C(=O)NCc2cccs2)c1 (stereo unspecified),–,inactive: -1.53%
CC1(C)C2CCC1(CS(=O)(=O)N1CCCc3ccccc31)C(=O)C2 (stereo unspecified),"inconclusive [inhibitor, partial curve, poor fit]",–
O=C(Cc1cccc2ccccc12)NC(NC(=S)Nc1ccccc1Cl)C(Cl)(Cl)Cl (stereo unspecified),active: 4.47 µM,–
COC(=O)c1ccc(COC(=O)CNC(=O)CNC(=O)c2ccc(OC)cc2)cc1,–,inactive: 8.16%
COc1ccccc1CNC(=O)CN1C(=O)NC2(CCCCCCC2)C1=O,"inconclusive [inhibitor, partial curve, poor fit]",–

SMILES,Potency,"activity change, negative = inhibition"
CCN(CC)CCCOc1ccc(C)cc1Br,"inconclusive [inhibitor, partial curve]",–
CCOC(=O)c1c(NC(=O)C(C)N2CCN(C(=O)c3ccco3)CC2)sc2c1CCCC2 (stereo unspecified),"inconclusive [inhibitor, partial curve, poor fit]",–
CCN(CC(=O)Nc1cc(S(=O)(=O)N2CCCCC2)ccc1C)Cc1ccccc1,active: 6.31 µM,–
Cc1ccc(NC(=O)c2onc(C)c2Cl)cc1,"inconclusive [inhibitor, single point]",–
CCOC(=O)C1CCCN(C(=O)CNC(=O)c2nn(-c3ccc(OC)c(Cl)c3)c(=O)c3ccccc23)C1 (stereo unspecified),"inconclusive [inhibitor, single point]",–
COc1cccc(Cl)c1NC(=O)N1CCc2c([nH]c3ccccc23)C1C(F)(F)F (stereo unspecified),"inconclusive [inhibitor, partial curve, poor fit]",–
Cc1nc2ccccc2c(=O)n1-c1cccc(NC(=O)c2cccs2)c1,–,inactive: 44.1%
CCOC(=O)c1ccc(NC(=O)c2c(NCc3cc(OC)c(OC)cc3OC)sc3c2CCCC3)cc1,–,inactive: -22.1%
CCN1CCN(c2cc3c(cc2F)c(=O)c(S(=O)(=O)c2cc(C)cc(C)c2)cn3CC)CC1,–,inactive: 6.71%
COc1ccc(-n2cc(-c3ccccc3)c3c(NCCc4ccc(OC)c(OC)c4)ncnc32)cc1,"inconclusive [inhibitor, partial curve, poor fit]",–
Cc1ccc(NC(=O)CNC(=O)CC23CC4CC(CC(C4)C2)C3)c(O)c1,"inconclusive [inhibitor, partial curve, poor fit]",–
COc1ccc(-n2nnnc2C(c2ccccc2OC(F)(F)F)N2CCN(C/C=C/c3ccccc3)CC2)cc1 (stereo unspecified),"inconclusive [inhibitor, partial curve, poor fit]",–
O=C(Nc1ccc(S(=O)(=O)N2CCCCC2)cc1)c1ccc(Cl)nc1,"inconclusive [inhibitor, single point]",–
O=C(CSc1oc(-c2ccco2)nc1S(=O)(=O)c1ccccc1)c1ccc(Cl)cc1,"inconclusive [inhibitor, single point]",–
COc1ccc(CCNC(C(=O)Nc2cc(C)cc(C)c2)c2ccccc2)cc1 (stereo unspecified),"inconclusive [inhibitor, single point]",–
CCN(c1ccc(C)cc1C)S(=O)(=O)c1nnc(NC(=O)c2ccccc2OC)s1,"inconclusive [inhibitor, single point]",–
CCOC(=O)c1oc2ccc(S(=O)(=O)n3nc(-c4cc(OCC)c(OCC)c(OCC)c4)cc3N)cc2c1C,"inconclusive [inhibitor, partial curve, poor fit]",–
CCOC(=O)c1ccc(NC(=O)CC2C(=O)N(c3ccccc3)C(=O)N2C2CCCCC2)cc1 (stereo unspecified),"inconclusive [inhibitor, single point]",–
O=C(CCN1C(=O)c2cccc3cccc(c23)C1=O)NCc1ccco1,–,inactive: 16.5%
COc1cc(-c2c(CCO)sc3ccccc23)cc(OC)c1OC,"inconclusive [inhibitor, full curve, poor fit]",–
Cc1ccc(C(=O)N2CCC(C(=O)c3ccc(Cl)cc3)CC2)cc1,"inconclusive [inhibitor, partial curve, poor fit]",–
CCOc1cccc(C(=O)NC(=S)Nc2ccc3c(c2)OCCO3)c1,–,inactive: -9.26%

SMILES,Potency,"activity change, negative = inhibition"
O=C(CSc1cn(CCNC(=O)c2cccs2)c2ccccc12)NC1CCCC1,"inconclusive [inhibitor, single point]",–
CCOC(=O)c1c(C)c(C)n(Cc2cccc(OC)c2OC)c1C,"inconclusive [inhibitor, single point]",–
COc1cccc(NC(=O)C2(C)CCN2Cc2ccc3ccccc3c2)c1 (stereo unspecified),"inconclusive [inhibitor, single point]",–
N#CCCN1CCN(CCC#N)c2ccccc21,–,inactive: -16.2%
CCCN(CC(=O)Nc1ccccc1C)C(=O)c1ccc(COc2ccccc2)cc1,"inconclusive [inhibitor, single point]",–
COc1ccc(NC(=O)C2(c3ccc(NC(=O)c4ccc(OC)cc4)cc3)CCCC2)cc1,–,inactive: 20.7%
CCN(Cc1ccccc1)c1ccc(N=Nc2nn(C)c(C)c2[N+](=O)[O-])cc1,"inconclusive [inhibitor, single point]",–
CC1(c2ccc(OC(F)F)cc2)NC(=O)N(CC(=O)Nc2ccc(OC(F)F)cc2)C1=O (stereo unspecified),active: 10 µM,–
CCOc1ccccc1/C=N/NC(=O)c1c(C)nc2ccc(Br)cn12,–,inactive: 0.32%
O=C(Nc1ccc(Nc2ccccc2)cc1)c1c(F)c(F)c(F)c(F)c1F,"inconclusive [inhibitor, partial curve, poor fit]",–
COc1ccc(C2(C)CC(C)(C)Nc3ccccc32)cc1 (stereo unspecified),"inconclusive [inhibitor, partial curve, poor fit]",–
CN(C)CCCN1c2ccccc2Sc2ccccc21,"inconclusive [inhibitor, single point]",–
CCCCN(CCCNC(=O)C1CCN(S(=O)(=O)CC)CC1)c1ccccc1,"inconclusive [inhibitor, partial curve, poor fit]",–
CCOC(=O)c1ccc2c(c1)N(CC(=O)Nc1ccc(CC)cc1)C(=O)c1ccccc1S2,–,inactive: 0.613%
CC(=O)CCSc1nnc(-c2cccc(S(=O)(=O)N3CCOCC3)c2)o1,–,inactive: 6.25%
COc1cc2ccccc2cc1C(=O)N(CCN(C)C)c1nc2c(F)cccc2s1,"inconclusive [inhibitor, partial curve, poor fit]",–
CC(=O)Nc1ccc(S(=O)(=O)NC2(C(F)(F)F)N=C(c3ccccc3)NC2=O)cc1 (stereo unspecified),"inconclusive [inhibitor, single point]",–
COc1cccc(CNCCSc2nnnn2C)c1OCc1ccc(Cl)cc1,"inconclusive [inhibitor, single point]",–
Cc1ccccc1NC(=S)NN1CCN(C)CC1,–,inactive: 22.3%
O=C(NCCc1cccc(Cl)c1)c1ccc2c(c1)OCO2,"inconclusive [inhibitor, single point]",–
COc1ccc(C(F)(F)F)cc1N/C=C/c1nnnn1-c1ccc2ccccc2c1,–,inactive: 0.106%
CCCN(CCC)CCCNC(=O)c1cn(CC)c2ccc(S(=O)(=O)N3CCc4ccccc4C3)cc2c1=O,"inconclusive [inhibitor, full curve, poor fit]",–
